Reference: PubChem BioAssay AID493208 (National Center for Advancing Translational Sciences (NCATS), 2011)
The campaign covered roughly 44,000 compounds. About 340 (0.77%) were called active. Inconclusive results (about 5%) are left out. Calls follow the shape of the dose curve; as a rule, active = well fitted inhibition curve with a large enough effect; inconclusive = small, poorly fitted or top-dose-only effect; inactive = flat fitted curve, though single readings scatter. Some of the results follow.

experiment: Acumen qHTS Assay for Inhibitors of the mTORC1 Signaling Pathway in MEF (Tsc2-/-, p53-/-) Cells: Sytravon; settings: phospho-rpS6 immunofluorescence/PI, 24 h; series mostly up to 38.3 µM; activity change, negative = inhibition: at the top concentration; also: nearly all actives have a fitted effect of over 50% in size
Excerpt: NIH Molecular Libraries Probe Production Centers Network [MLPCN] NIH Chemical Genomics Center [NCGC] MLPCN Grant: NS059428-01 Assay Submitter (PI): Blenis, John; Hoffman, Greg; Harvard University NCGC Assay Overview: The mammalian target of rapamycin (mTOR) is an intracellular serine/threonine kinase Aberrant regulation of mTOR signaling plays a causative role in a number of human diseases, including cancer, benign tumors such as lymphangioleiomyomatosis (LAM) and Tuberous Sclerosis Complex (TSC), and metabolic diseases such as diabetes and obesity. This project aims to identify inhibitors of ribosomal protein S6 (rpS6) phosphorylation. The phosphorylation of rpS6 is a key event downstream of mTOR activation. The assay uses a phospho-specific antibody of phospho-rpS6 to detect inhibitors of mTOR activation. Mutations in the Tsc1 and Tsc2 genes are the underlying genetic lesions responsible for TSC, causing constitutive activation of the mTORC1 pathway and leading to profound effects on cell metabolism. Aberrant metabolism in cancer has recently received significant attention as a target to develop therapeutic agents in the treatment of cancer.1 As Tsc2-/- cells have lost the ability to respond to energy and growth factor deprivation, these cells are unable to properly down regulate cellular biosynthetic processes in response to metabolic stress, and are thus extremely sensitive to glucose deprivation-induced death.2 A central goal of this project is to explore the unique cell survival and metabolic properties of cells with Tsc1 or Tsc2 by screening for compounds that selectively target the Tsc2-/- MEFs by screening both Tsc2-/- and WT MEF cell lines. We hope to better understand these aspects of TSC physiology in order to exploit them for therapeutic benefit.
NCGC Acumen Assay Protocol Summary: For quantitative high throughput analysis of mTORC1 signaling, we developed a cell-based assay for immuno-fluorescence based detection of rpS6 phosphorylation on the Acumen Explorer that will be used a platform for the primary small molecule screen. Mouse embryonic fibroblasts (MEFs) are cultured in 1536-well plates using DMEM + 10% FBS. Twenty-four hrs after plating, test compounds (solubilized in DMSO) are delivered and incubated with the cells for 24 hrs at 37 degree Celsius. Following the incubation, media with compound is aspirated and the cells are fixed in 4% paraformaldehyde (PFA) containing PBS + 0.2% TX-100. Next, PFA is aspirated, cells are washed two times with PBS plus 0.2% TX-100 and the cells are blocked for 1 hr at room temperature (blocking buffer: LiCOR Blocking Buffer plus 0.2% TX-100). […] Cells are washed two times with PBS plus 0.2% TX-100, and stained with 10 uM propidium iodide (PI) for 20-25 minutes for cell number measurement (1:500 dilution of Hoescht staining is also added for IN Cell imaging). The plates are scanned on the Acumen Explorer laser scanning instrument (TTP Labtech) using the 488nm laser for simultaneous excitation of the Alexa-488 and PI. […] The normalized phospho-S6 staining is calculated as the ratio of the integrated Alexa 488 intensity divided by the integrated PI intensity for the single concentration rapamycin control (7.5 nM) and DMSO columns. […] Inhibition of the pathway is defined based on the normalized phospho-S6 intensity in rapamycin treated cells. Active cells are defined as those with a normalized phospho-S6 staining above this threshold, and each treatment is reported as the % positive cells in the well, where thresholds are defined by selecting wells with the highest and lowest signal and differentiating between the % non-active and % active populations. In addition to the pathway specific phospho-S6 endpoint, the number of PI stained cells from the Acumen is recorded as a measure of cell viability. The primary screen was performed with a MEF cell line in a defined genetic background, Tsc2-/-, p53-/- cell line stably transfected with an empty vector control (Tsc2-/- MEF).
Potency is read from the fitted curve at half-maximal effect.

SMILES | activity change, negative = inhibition | Potency
CCc1ccc(OCC(=O)N2CCN(CCc3ccncc3)CC2)cc1 | inactive: 0.218% | 
Cc1ccccc1CN1C(=O)C(C)N=C(c2ccccc2)c2ccccc21 (stereo not drawn) | inactive: -9.86% | 
CCOc1ccc2nc(NC(=O)c3cccn(Cc4ccccc4Cl)c3=O)sc2c1 | inactive: -10.7% | 
CCOc1ccc(CN(CCc2ccc3c(c2)OCO3)Cc2ccc(OC)c(Br)c2)cc1 | inactive: -5.97% | 
Cc1ccc(C(C)C)c(OCC(=O)N2CCN(CCc3ccncc3)CC2)c1 | inactive: -25.1% | 
Cc1ccc(C(=O)Nc2ccccc2)cc1S(=O)(=O)N1CCCC1 | inactive: -3.64% | 
Cc1ccccc1-n1c(/C=C/c2ccc(N(C)C)cc2)nc2ccccc2c1=O | inactive: -5.14% | 
O=C(c1ccc2c(c1)N(Cc1ccc(F)cc1)C(=O)c1ccccc1S2)N1CCC2(CC1)OCCO2 | inactive: -6.48% | 
COc1ccc(OCC(=O)N2CCN(Cc3ccc(SC)cc3)CC2)cc1 | inactive: 0.178% | 
Cc1cccc(Cn2cccc(C(=O)Nc3ccc(F)cc3F)c2=O)c1 | inactive: 3.43% | 
Cc1ccc(OCC(=O)N2CCN(CCc3ccncc3)CC2)cc1 | inactive: -4.06% | 
CC(C)c1ccc(OCC(=O)N2CCN(CCc3ccccn3)CC2)cc1 | inactive: -13.4% | 
COc1ccc(OCC(=O)N2CCN(Cc3cc(=O)n4nc(-c5ccc(OC)cc5)sc4n3)CC2)cc1 | inactive: -1.13% | 
COc1cccc(-c2nn3c(=O)cc(CN4CCN(C(=O)COc5ccccc5C)CC4)nc3s2)c1 | inactive: 4.49% | 
Cc1ccc(OCC(=O)Nc2ccc(Cl)cc2C(=O)c2ccccc2)cc1C | inactive: 15.9% | 
Cc1nnc(NC(=O)c2cccn(Cc3cccc(F)c3)c2=O)s1 | inactive: 2.15% | 
Cc1c(Cl)cccc1NC(=O)c1oc2ccc(S(=O)(=O)N3CCC4(CC3)OCCO4)cc2c1C |  | active: 13.1 µM
Cc1ccc(NC(=O)Cn2cc(C(=O)c3ccccc3)c3ccccc32)c(C)c1 | inactive: -1.19% | 
Cc1cccc(CN2C(=O)CN=C(c3ccccc3)c3ccccc32)c1 | inactive: -0.185% | 
COc1ccc(-n2c(/C=C/c3cccc(F)c3)nc3ccccc3c2=O)cc1Cl | inactive: 12.5% | 
Cc1cccc(-n2nc(C)c3c2NC(=O)CSC3c2ccccc2Cl)c1 (stereo not drawn) | inactive: -0.0021% | 

SMILES | activity change, negative = inhibition | Potency
CCOc1ccc(CN(CCc2ccc3c(c2)OCO3)Cc2ccc(C)cc2)cc1 | inactive: -7.08% | 
CC(C)Cc1nc2cccnc2n1C1CCNCC1 | inactive: 3.26% | 
CCCCC12CN3CC(C)(CN(C1)C3c1ccccn1)C2=O (stereo not drawn) | inactive: 6.49% | 
Cc1ccccc1OCC(=O)N1CCN(CCc2ccccn2)CC1 | inactive: 3.48% | 
COc1ccc(NC(=O)CCc2nc(C3=CCN(Cc4cccc(Cl)c4)CC3)no2)c(OC)c1 | inactive: 0% | 
O=S1(=O)N(Cc2ccccc2Cl)CCCN1Cc1ccccc1Cl | inactive: -0.129% | 
O=C(Nc1ccc2c(c1)OCO2)c1cccn(Cc2cccc([N+](=O)[O-])c2)c1=O | inactive: 1.63% | 
O=c1c2ccccc2nc(/C=C/c2ccccc2F)n1-c1cccc(O)c1 | inactive: -19.5% | 
CCc1nc(SC)ncc1C(=O)Nc1ccc(Cl)cc1C(=O)c1ccccc1 | inactive: -3.4% | 
Cc1cccc(-c2nn3c(=O)cc(CN4CCN(C(=O)COc5ccc(Cl)cc5)CC4)nc3s2)c1 | inactive: 0% | 
COc1cccc(C2SCC(=O)Nc3c2c(C)nn3-c2ccc(C)c(Cl)c2)c1OC (stereo not drawn) | inactive: -6.59% | 
CN(C)c1ccc(NC(=O)c2sc3nc4c(cc3c2N)N2CCC4CC2)cc1 | inactive: 6.14% | 
Cc1ccc(Cn2cccc(C(=O)Nc3cc(C)on3)c2=O)cc1 | inactive: -1.46% | 
Cc1c(C(c2ccc(Br)cc2)c2c(O)c3ccccc3oc2=O)c(=O)n(-c2ccccc2)n1C (stereo not drawn) | inactive: 5.57% | 
Cc1ccccc1-n1nc(C)c2c1NC(=O)CSC2c1ccc(Cl)cc1 (stereo not drawn) | inactive: -7.56% | 
COc1ccc(OCC(=O)N2CCN(CCc3ccncc3)CC2)cc1 | inactive: 1.09% | 
Cc1ccccc1-n1c(/C=C/c2c(C)[nH]c3ccccc23)nc2ccccc2c1=O | inactive: -25.7% | 
Cc1ccc(Cn2cccc(C(=O)Nc3ccc4c(c3)OCCO4)c2=O)cc1 | inactive: 0.319% | 
COc1ccccc1C1SCC(=O)Nc2c1c(C)nn2-c1cccc(C)c1 (stereo not drawn) | inactive: -9.99% | 
Cc1ccc(-c2nc(CN3C(=O)CN=C(c4ccccc4)c4ccccc43)c(C)o2)cc1 | inactive: 1.97% | 
CCN(CC)C(=O)c1ccc(NC(=O)c2ccc(-c3nn(C)c(=O)c4ccccc34)cc2)cc1 | inactive: 1.08% | 

SMILES | activity change, negative = inhibition | Potency
COc1ccc(Br)cc1C1SCC(=O)Nc2c1c(C)nn2-c1ccccc1C (stereo not drawn) | inactive: -6.21% | 
Cc1ccc(-c2nn3c(=O)cc(CN4CCN(C(=O)COc5ccc(C)c(C)c5)CC4)nc3s2)cc1 | inactive: 6.24% | 
CCCC12CN3CC(C)(CN(C1)C3c1c(C)[nH]c(=O)[nH]c1=O)C2=O (stereo not drawn) | inactive: -0.0216% | 
Cc1ccccc1-c1nc(CN2C(=O)CN=C(c3ccccc3)c3ccccc32)c(C)o1 | inactive: 0.691% | 
CCc1ccc(-n2nc(C)c3c2NC(=O)CSC3c2ccc(C(=O)OC)cc2)cc1 (stereo not drawn) | inactive: -8.39% | 
COc1ccccc1-c1nn2c(=O)cc(CN3CCN(C(=O)COc4ccccc4Cl)CC3)nc2s1 | inactive: 0.211% | 
O=C(Nc1ccc(Br)cc1C(=O)c1ccccc1Cl)c1ccc(Br)cc1 | inactive: -3.84% | 
COc1cc2[nH]c(=O)n(-c3ccc(C)cc3)c(=O)c2cc1OC | inactive: -5.39% | 
CCN(CC)C(=O)c1ccc(NC(=O)COc2ccc(-c3nn(C)c(=O)c4ccccc34)cc2)cc1 | inactive: -16.3% | 
CCOc1ccc(N(C(C)C(=O)Nc2cc(Cl)ccc2OC)S(C)(=O)=O)cc1 (stereo not drawn) |  | active: 7.36 µM
Cc1ccc2c(=O)n(-c3cccc(Cl)c3)c(=O)[nH]c2c1 | inactive: -3.18% | 
Cc1ccc2nc(NC(=O)c3cccn(Cc4ccccc4F)c3=O)sc2c1 | inactive: 0.0858% | 
O=c1c2ccccc2nc(/C=C/c2cccc3ccccc23)n1-c1ccc(Cl)cc1 | inactive: 4.04% | 
COc1cc(OC)cc(C(=O)Nc2ccc(Cl)cc2C(=O)c2ccccc2Cl)c1 | inactive: 4.58% | 
CCC12CN3CC(CC)(CN(C1)C3c1c(C)[nH]c(=O)[nH]c1=O)C2=O (stereo not drawn) | inactive: 0.759% | 
COc1cccc(-n2c(/C=C\c3ccc(Cl)cc3)nc3ccccc3c2=O)c1 | inactive: 10.4% | 
c1cnc2c(c1)ncn2C1CCNCC1 | inactive: 0% | 
Cc1ccc(C(C)(C)C)c(OCC(=O)Nc2ccc(Cl)cc2C(=O)c2ccccc2)c1 | inactive: -0.761% | 
Cc1ccc(OCC(=O)N2CCN(Cc3ccc(F)cc3)CC2)cc1 | inactive: -20.5% | 
O=C(COc1ccc(Br)cc1)Nc1ccc(Cl)cc1C(=O)c1ccccc1 | inactive: 0.151% | 
Cc1cc(C)cc(NC(=O)CN2C(=O)CN=C(c3ccccc3)c3cc(Cl)ccc32)c1 | inactive: 1.46% | 
